T1: RBFOX1 RRM (Homo sapiens, UniProt Q9NWB1 109-208)
T1 sequence: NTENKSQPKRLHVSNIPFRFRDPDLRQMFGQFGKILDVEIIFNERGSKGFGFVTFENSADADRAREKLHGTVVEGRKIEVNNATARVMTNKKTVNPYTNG

B1: CGAAGUU (DNA:RNA)
RNA: GGGAGACCGGAAUUCAGAUUGUCCCGAAGUUUUAAAUCCCGUCGUAGCCACCA
DNA 1: CAATCTGAATTCCGGTCTCCC
DNA 2: TGGTGGCTACGACGGGATT
B2: GAAAUCU (DNA:RNA)
RNA: B1 RNA with C25G, G26A, G29U, U30C
DNA 1: CAATCTGAATTCCGGTCTCCC
DNA 2: TGGTGGCTACGACGGGATT
B3: GGCACAA (DNA:RNA)
RNA: B1 RNA with C25G, A27C, G29C, U30A, U31A
DNA 1: CAATCTGAATTCCGGTCTCCC
DNA 2: TGGTGGCTACGACGGGATT
B4: AGGCGUG (DNA:RNA)
RNA: B1 RNA with C25A, A27G, A28C, U31G
DNA 1: CAATCTGAATTCCGGTCTCCC
DNA 2: TGGTGGCTACGACGGGATT
B5: AGUUUAC (DNA:RNA)
RNA: B1 RNA with C25A, A27U, A28U, G29U, U30A, U31C
DNA 1: CAATCTGAATTCCGGTCTCCC
DNA 2: TGGTGGCTACGACGGGATT
B6: CAGCAGU (DNA:RNA)
RNA: B1 RNA with G26A, A27G, A28C, G29A, U30G
DNA 1: CAATCTGAATTCCGGTCTCCC
DNA 2: TGGTGGCTACGACGGGATT
B7: AUACUCU (DNA:RNA)
RNA: B1 RNA with C25A, G26U, A28C, G29U, U30C
DNA 1: CAATCTGAATTCCGGTCTCCC
DNA 2: TGGTGGCTACGACGGGATT
B8: ACAAUUU (DNA:RNA)
RNA: B1 RNA with C25A, G26C, G29U
DNA 1: CAATCTGAATTCCGGTCTCCC
DNA 2: TGGTGGCTACGACGGGATT
B9: GUCGCUA (DNA:RNA)
RNA: B1 RNA with C25G, G26U, A27C, A28G, G29C, U31A
DNA 1: CAATCTGAATTCCGGTCTCCC
DNA 2: TGGTGGCTACGACGGGATT
B10: AUGGCAU (DNA:RNA)
RNA: B1 RNA with C25A, G26U, A27G, A28G, G29C, U30A
DNA 1: CAATCTGAATTCCGGTCTCCC
DNA 2: TGGTGGCTACGACGGGATT
B11: CCUCGGU (DNA:RNA)
RNA: B1 RNA with G26C, A27U, A28C, U30G
DNA 1: CAATCTGAATTCCGGTCTCCC
DNA 2: TGGTGGCTACGACGGGATT
B12: AGUAGCC (DNA:RNA)
RNA: B1 RNA with C25A, A27U, U30C, U31C
DNA 1: CAATCTGAATTCCGGTCTCCC
DNA 2: TGGTGGCTACGACGGGATT
B13: CUGAAGC (DNA:RNA)
RNA: B1 RNA with G26U, A27G, G29A, U30G, U31C
DNA 1: CAATCTGAATTCCGGTCTCCC
DNA 2: TGGTGGCTACGACGGGATT
B14: AUCACCC (DNA:RNA)
RNA: B1 RNA with C25A, G26U, A27C, G29C, U30C, U31C
DNA 1: CAATCTGAATTCCGGTCTCCC
DNA 2: TGGTGGCTACGACGGGATT
B15: GAUGCAU (DNA:RNA)
RNA: B1 RNA with C25G, G26A, A27U, A28G, G29C, U30A
DNA 1: CAATCTGAATTCCGGTCTCCC
DNA 2: TGGTGGCTACGACGGGATT
B16: ACAUGCU (DNA:RNA)
RNA: B1 RNA with C25A, G26C, A28U, U30C
DNA 1: CAATCTGAATTCCGGTCTCCC
DNA 2: TGGTGGCTACGACGGGATT
B17: UGUCGUG (DNA:RNA)
RNA: B1 RNA with C25U, A27U, A28C, U31G
DNA 1: CAATCTGAATTCCGGTCTCCC
DNA 2: TGGTGGCTACGACGGGATT
B18: ACUUACC (DNA:RNA)
RNA: GGGAGACCGGAAUUCAGAUUGUCCACUUACCUUAAAUCCCGUCGUAGCCACCA
DNA 1: CAATCTGAATTCCGGTCTCCC
DNA 2: TGGTGGCTACGACGGGATT
B19: UUAUCAU (DNA:RNA)
RNA: B1 RNA with C25U, G26U, A28U, G29C, U30A
DNA 1: CAATCTGAATTCCGGTCTCCC
DNA 2: TGGTGGCTACGACGGGATT
B20: GUGUUCG (DNA:RNA)
RNA: B18 RNA with A25G, C26U, U27G, A29U, C31G
DNA 1: CAATCTGAATTCCGGTCTCCC
DNA 2: TGGTGGCTACGACGGGATT
B21: CAACCAA (DNA:RNA)
RNA: B1 RNA with G26A, A28C, G29C, U30A, U31A
DNA 1: CAATCTGAATTCCGGTCTCCC
DNA 2: TGGTGGCTACGACGGGATT
B22: UGUCUUU (DNA:RNA)
RNA: B1 RNA with C25U, A27U, A28C, G29U
DNA 1: CAATCTGAATTCCGGTCTCCC
DNA 2: TGGTGGCTACGACGGGATT
B23: GGAUACC (DNA:RNA)
RNA: B18 RNA with A25G, C26G, U27A
DNA 1: CAATCTGAATTCCGGTCTCCC
DNA 2: TGGTGGCTACGACGGGATT
B24: UCUGGCA (DNA:RNA)
RNA: B18 RNA with A25U, U28G, A29G, C31A
DNA 1: CAATCTGAATTCCGGTCTCCC
DNA 2: TGGTGGCTACGACGGGATT
B25: GCAGCUA (DNA:RNA)
RNA: B1 RNA with C25G, G26C, A28G, G29C, U31A
DNA 1: CAATCTGAATTCCGGTCTCCC
DNA 2: TGGTGGCTACGACGGGATT
B26: AUGUGUA (DNA:RNA)
RNA: B18 RNA with C26U, U27G, A29G, C30U, C31A
DNA 1: CAATCTGAATTCCGGTCTCCC
DNA 2: TGGTGGCTACGACGGGATT
B27: GGACUGC (DNA:RNA)
RNA: B1 RNA with C25G, A28C, G29U, U30G, U31C
DNA 1: CAATCTGAATTCCGGTCTCCC
DNA 2: TGGTGGCTACGACGGGATT
B28: CCGGUAA (DNA:RNA)
RNA: B18 RNA with A25C, U27G, U28G, A29U, C30A, C31A
DNA 1: CAATCTGAATTCCGGTCTCCC
DNA 2: TGGTGGCTACGACGGGATT
B29: GUUCUGG (DNA:RNA)
RNA: B18 RNA with A25G, C26U, U28C, A29U, C30G, C31G
DNA 1: CAATCTGAATTCCGGTCTCCC
DNA 2: TGGTGGCTACGACGGGATT
B30: GGAAGUU (DNA:RNA)
RNA: B1 RNA with C25G
DNA 1: CAATCTGAATTCCGGTCTCCC
DNA 2: TGGTGGCTACGACGGGATT
B31: CCUCCUU (DNA:RNA)
RNA: B1 RNA with G26C, A27U, A28C, G29C
DNA 1: CAATCTGAATTCCGGTCTCCC
DNA 2: TGGTGGCTACGACGGGATT

The values that follow come from publication PMC9911399, “Two distinct binding modes provide the RNA-binding protein RbFox with extraordinary sequence specificity”.

Residue numbers refer to the chain shown, from its start. The list shows a part of the results.

In this assay the target is T1, RBFOX1 RRM. In words: EMSA; HiTS-Eq, 1 nM pool, 10 min; buffer printed only for the single-RNA assays: 10 mM Tris pH 7.5, 150 mM NaCl, 3.4 mM EDTA, 0.001% NP-40, 30 C. The following applies: tags: His6 N-terminal (pET28a); label: 5' 32P. A digest of the protocol:
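Purified wild-type or mutant RbFox RRM at increasing concentrations was equilibrated with 1 nM of 5′-radiolabelled RNA carrying 7 randomized nucleotides for 10 min in 50 µL. Unbound RNA was separated by 8% native PAGE and sequenced. Relative association constants came from read-count changes of each RNA species compared with the control reaction, normalised to the cognate motif.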
Background: In EMSA bound probe runs differently from free probe, usually more slowly.
As for B1, the binding signal was 0.0104 KA relative to UGCAUGU. For B2 the value was 0.00861 KA relative to UGCAUGU; for B3, 0.0039 KA relative to UGCAUGU; for B4, 0.0157 KA relative to UGCAUGU. For B5 the value was 0.00577 KA relative to UGCAUGU. Then B6, with 0.00674 KA relative to UGCAUGU; and B7, with 0.000377 KA relative to UGCAUGU; and B8, with 0.000785 KA relative to UGCAUGU.

On to B9, for which the binding signal is 0.0101 KA relative to UGCAUGU. Then B10, with 0.0152 KA relative to UGCAUGU; and B11, with 0.00827 KA relative to UGCAUGU; and B12, with 0.0103 KA relative to UGCAUGU. B13: the binding signal is 0.0135 KA relative to UGCAUGU.

B14: the binding signal is 0.00275 KA relative to UGCAUGU. For B15 the value was 0.0224 KA relative to UGCAUGU. Then B16, with 0.0044 KA relative to UGCAUGU; and B17, with 0.0277 KA relative to UGCAUGU; and B18, with 0.00118 KA relative to UGCAUGU. Then B19, with 0.00318 KA relative to UGCAUGU; and B20, with 0.0247 KA relative to UGCAUGU. For the molecule B21, the binding signal is 0.00159 KA relative to UGCAUGU. In the case of B22, the binding signal is 0.018 KA relative to UGCAUGU.

With B23, the binding signal was 0.00541 KA relative to UGCAUGU. For B24 the value was 0.0191 KA relative to UGCAUGU. Then B25, with 0.00719 KA relative to UGCAUGU; and B26, with 0.0114 KA relative to UGCAUGU. For B27 the value was 0.0247 KA relative to UGCAUGU; for B28, 0.00723 KA relative to UGCAUGU. As for B29, the binding signal is 0.0174 KA relative to UGCAUGU. For B30, the binding signal was 0.0208 KA relative to UGCAUGU.

As to B31, the binding signal is 0.00445 KA relative to UGCAUGU.
